Reference: the RNAGym collection of RNA variant scans (doi:10.7554/elife.90254)
Read counts are not given, so values of variants with three or more changes are uncertain.

B1: LINE1-full (parent)
chain: UACGUAGGUGGUUUUCCCCUGAUAGUGCUAAGGGGGCCUGGAAGUUUGGACUGGGCAGAGCUCAACACAGCGUGGCAAAGUGGCUGUGGCUAGACUGCCUCUCUGGAUUCCUCGUCACUCAGCAGGGCAUCUCUGAGAGAAAUGCC

Variants of: B1
Assay: self-cleavage, relative activity (ratio to wild type); higher = more cleavage; in vitro, sequencing; the parent is a self-cleaving ribozyme

| Variant | self-cleavage |
| --- | --- |
| U15C U87A A117U | 0.08 |
| U14A A43C U46C A65G | 0.17 |
| A22G U73A U87A U91C | 0.02 |
| U13C A69G U81C | 0 |
| A42G U45C A59G C103U A140C | 0.66 |
| A78G U104C A140U | 3 |
| A22G A59U G114A A129U | 0.9 |
| A2G U100C A140G | 1.21 |
| C17U A65G A79U A141G | 0.04 |
| G34C A59U U104C G139U | 0 |
| U14C A24G U87C | 0.51 |
| U39A U108C A117G | 1.7 |
| U45C U115A A140G | 1.36 |
| A64U U96A U119A | 0.02 |
| G11A A64G A79G A117G A140U | 0.73 |
| A2G A64G A77U A124G | 0.27 |
| U45A A78G C95U | 0.16 |
| A77G U81C U100C | 0.84 |
| A65G A94G A136G | 0 |
| U23A A31C A77U U104A U108C | 0.97 |
| A22U A43G A64U U102C A138G | 0.15 |

| Variant | self-cleavage |
| --- | --- |
| A24U U39A A42G A77U | 0.99 |
| A2G U26G U29C | 0.57 |
| C28A U45C U91C A129U U130C | 0.71 |
| U5G A67C A121U | 0.37 |
| U1C U39A U81A | 1.38 |
| U46A A65U U100C | 0.32 |
| A30G A43G U45A U132C G137A | 0 |
| U14C A79U U96C | 0.2 |
| U62C A79G G83A | 0.04 |
| A6U U12C A64U U73C U100C | 0.81 |
| U9A U12C A57C A94G | 0 |
| G80A U91C U115C A136U | 0.84 |
| A64U A78G U104G A136C | 0.24 |
| U52C U91A U109A U119A | 0.95 |
| U9G G11U U91C | 0.87 |
| A69G A117G U143G | 0 |
| C111A U130C U132C | 1.44 |
| C28U C90U A136G | 0.04 |
| U47C U52C A124U A141G | 1.7 |
| U47C U108C G127A | 2.51 |
| U29C U104C U134C | 2.9 |

| Variant | self-cleavage |
| --- | --- |
| G114A A124G A129G A136G | 1.54 |
| U47C A67U U81G U119C U132A | 0.46 |
| C28U U39C U52A | 0.24 |
| U9A U87A A121U | 0.09 |
| A6U U15C G41A A78G | 1.64 |
| U62C U102C G122A | 0.04 |
| G88C U132C U134C | 0.07 |
| U73C C111A U130C | 1.43 |
| U9C U15A G126U A141G | 0.75 |
| U12C U102A U109C A138G | 2.42 |
| G4A G33U U39A U46A A64U A79G A129U A136G | 0.33 |
| U23A U87C A140C | 0 |
| U9C C28G U96C U115A U130C | 0 |
| C37G U45G G58U | 0.09 |
| U15A U134C A136U A142G | 0.94 |
| U9A A64U U96C A141G | 0.07 |
| A22G A65G A79G | 0.31 |
| A50G U81A U85C C113U A117G A138G | 0.13 |
| U12C U15C C66U U108C U134C | 0.26 |
| U14C G55A G83A A142G U143A | 0.06 |
| U14C U26A A121U | 1.27 |

| Variant | self-cleavage |
| --- | --- |
| U115C A129U A141G | 1.97 |
| U5A U13C A69U C116A | 0.15 |
| A42G A92G U96A U115C | 0 |
| U13C G126A A141G | 1.05 |
| A2G U29C A43U A69G | 0.78 |
| U45C U81A A124U | 2.24 |
| A2G A57G A77G A141U | 1.77 |
| U15C U85C U96A | 0.15 |
| A50U C71U G89A | 0.01 |
| A2U A65U U108C | 0.2 |
| G34A A59U U87C | 0.17 |
| G33U A57U U62C | 0.06 |
| U20C A50G U109C U132C | 0.71 |
| G8U U13C U85C | 0.1 |
| U9A U12A A69U A121U | 0.14 |
| U23C A43G U81C | 1.93 |
| U12A A31C G139A | 1.42 |
| U13A U52A U85C | 0.18 |
| U52C A94G G114C A121U | 0.29 |
| A22U A65G U143A | 0.09 |
| U47A A57U U134A | 0.16 |
